Reference: patent US20220251215A1

Assays:
[1] = target: HLA.A2 with NY-ESO-1: 157-165 on IM9 cells; assay: cell-based or functional assay
[2] = target: HLA.A2/hB2M/NY-ESO-1: 157-165 WT on 3T3 cells (human) (UniProt P04439); assay: cell-based or functional assay

Binder | EC50 (#of APC cells), NFAT-luciferase [1] [APC cells] | Max Fold (RLU), NFAT-luciferase [1] [fold] | EC50 (#of APC cells), NFAT-luciferase [2] [APC cells] | Max Fold (RLU), NFAT-luciferase [2] [fold]
NY-ESO CAR-T 24955N VL-VH (protein, part only; not given: scFv linker, hinge, signalling domains, not shown: large carriers) chain, part: [in this place about 100 residues]TRLEIKEVQLVESGGGVVQPGGSLRLSCVASGFTFDDYAMYWVRQVPGKDLEWVSLISGDGDITYYVDSVKGRFTVSRDNNKNSLYLQMKSLRVEDTALYYCAKDMIYYASWSGYGSSDYYYYVMDVWGQGTTVTVSS | 253000 | 4.1 | 88700 | 30.5
NY-ESO CAR-T 24956N VL-VH (protein, part only; not given: scFv linker, hinge, signalling domains, not shown: large carriers) chain, part: [in this place about 100 residues]PITFGQGTRLEIKEVQLVESGGGVVQPGGSLRLSCAASGFTFDDYAMYWVRQAPGKGLEWVSLISGDGGSMYYADSVKGRFTISRDNSKNSLYLQMNSLRTEDTALYYCAKDMIFYAFWSGYGSSDYYYYVMDVWGQGTTVTVYS | 112000 | 4.4 | 25900 | 38.1
